Laboratory results: paper PMC7819943, “Rice protein-binding microarrays: a tool to detect cis-acting elements near promoter regions in rice”
This is one part of the list.

biological target: T1, OsWOX13 (Oryza sativa, UniProt Q5QMM3 1-267); assay: protein-binding microarray (RPBM); PBS, 2% BSA, 51.3 ng/ul salmon testes DNA, 50 uM zinc acetate, 200 nM TF, 25 C, 1 h; high values mean tight binding; settings: protein: recombinant; tags: N-terminal polyhistidine and DsRed monomer fusion (pET32a); label: CyDye5-dUTP incorporated in the synthesized complementary strand; 3' TTTTT single-stranded linker to array surface; dsDNA, one strand shown
T1 sequence: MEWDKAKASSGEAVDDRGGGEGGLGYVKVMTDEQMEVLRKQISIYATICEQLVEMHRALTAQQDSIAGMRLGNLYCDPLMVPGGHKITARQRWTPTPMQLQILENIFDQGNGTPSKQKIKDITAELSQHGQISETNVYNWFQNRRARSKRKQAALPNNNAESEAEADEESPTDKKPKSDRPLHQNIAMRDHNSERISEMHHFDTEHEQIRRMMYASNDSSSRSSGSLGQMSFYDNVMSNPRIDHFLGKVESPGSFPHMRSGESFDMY
Method in brief: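 The binding signal is fluorescence intensity per array feature (arbitrary units). Readings came from an Axon 4000B scanner after a washed, 2% BSA-blocked, double-stranded custom Agilent array had been incubated for 1 h at 25 °C with 200 nM protein and 50 µM zinc acetate. The protein was a Ni–NTA-purified transcription factor fused N-terminally to polyhistidine and DsRed, expressed in E. coli BL21-CodonPlus.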

| Sequence | binding signal |
| --- | --- |
| ATTCAAGATTTAACAATCACCAATTTTATTCTAAATAACACGGAGTCACCTAGTGCAG | 6120 fluorescence intensity (a.u.) |
| GTTTTCAAATCTAGATTGAAAGTTTTCAAATCCGGGTTAACGGAGTCACCTAGTGCAG | 18600 fluorescence intensity (a.u.) |
| CATATTATCCTAATTGATGTTATTACTAGTATTTCTTAATCGGAGTCACCTAGTGCAG | 13600 fluorescence intensity (a.u.) |
| TGTTAACTGGAGCGGAATTAATACAATTGCCATTTGTCTTCGGAGTCACCTAGTGCAG | 19900 fluorescence intensity (a.u.) |
| GAATGTGTGATTATCAGCATAGCCGAGATCAATTTCGAGGCGGAGTCACCTAGTGCAG | 5340 fluorescence intensity (a.u.) |
| GGTGAATCATGAAATCAAGCAAATTAAATCATTGTATAATCGGAGTCACCTAGTGCAG | 3560 fluorescence intensity (a.u.) |
| ATGACACATGCCGTTGATTGGTTGACACAGATCGGATTCGCGGAGTCACCTAGTGCAG | 46900 fluorescence intensity (a.u.) |
| AACTAAAATTACACCTTAATTACAATATACTTCACATAGCCGGAGTCACCTAGTGCAG | 15000 fluorescence intensity (a.u.) |
| AATTAGCTGATTTGCAAATGATTTCCACCGTGGTGTGACACGGAGTCACCTAGTGCAG | 35700 fluorescence intensity (a.u.) |
| GTAGTAATTGGTTTAACATTACTGTGCGAAATTTCAGTTGCGGAGTCACCTAGTGCAG | 38900 fluorescence intensity (a.u.) |
| CTTGTGTTTCAATTAAGAATACCGACAGCTGACGTGCCAGCGGAGTCACCTAGTGCAG | 6550 fluorescence intensity (a.u.) |
| CCTTTGATTTTCATGTGCTAGATGGAGAACTGATAGTGGTCGGAGTCACCTAGTGCAG | 19700 fluorescence intensity (a.u.) |
| CAAAATCAATCAATCAATCCAGCCCTGCCCTCCTTTCGGTCGGAGTCACCTAGTGCAG | 57900 fluorescence intensity (a.u.) |
| AATAATTCTAATTTCTTTTAAATAAGATGAATGATCAAATCGGAGTCACCTAGTGCAG | 3820 fluorescence intensity (a.u.) |
| TTAGATGACACGAGAGATGATAATTGTTATCTAGCTGTTCCGGAGTCACCTAGTGCAG | 5630 fluorescence intensity (a.u.) |
| ATTAAATCTATAATTTTGTGATACTTAAGTTTTAAACCTCCGGAGTCACCTAGTGCAG | 9610 fluorescence intensity (a.u.) |
| GGATAATGCCATTTATAAATTTTCAGGAGCTAATGGTCCACGGAGTCACCTAGTGCAG | 4520 fluorescence intensity (a.u.) |
| TATACTATTTCAATTTATCTAGTAAATCTCACACTAACTACGGAGTCACCTAGTGCAG | 3580 fluorescence intensity (a.u.) |
| AATTAATCACACGTTATTACCACCCCATTTTGTGTGAAACCGGAGTCACCTAGTGCAG | 12600 fluorescence intensity (a.u.) |
| CTGCAAATCAACTTCACAGCACATTCCCCATCCACCAACTCGGAGTCACCTAGTGCAG | 3740 fluorescence intensity (a.u.) |
| GTGATAGACTTGGTTCGATTGACAATTGAAGTCTGAATGGCGGAGTCACCTAGTGCAG | 26000 fluorescence intensity (a.u.) |
| ATTGTGGTCTAATTACCTAGACATCGAGCATGTGAAAACTCGGAGTCACCTAGTGCAG | 4310 fluorescence intensity (a.u.) |
| CAGACAGAGGATTACCAAGATTGGCTGTATGAAATACGTACGGAGTCACCTAGTGCAG | 4540 fluorescence intensity (a.u.) |
| CCCAAGGAATAATTAATTATTTGCTAATCTTATGAGTGGTCGGAGTCACCTAGTGCAG | 26200 fluorescence intensity (a.u.) |
| AATTATTTATTCAAATCATGATCCGATTGTACCATTAAATCGGAGTCACCTAGTGCAG | 4030 fluorescence intensity (a.u.) |
| GCATACTAATGACTAATGAGAAACCAACAGGTCATTTCGTCGGAGTCACCTAGTGCAG | 3300 fluorescence intensity (a.u.) |
| GTGACCGCCAATCATGAGCTCAACACTCTCTATTCCCTTCCGGAGTCACCTAGTGCAG | 17300 fluorescence intensity (a.u.) |

| Sequence | binding signal |
| --- | --- |
| TTTGCATACGTGGCGGGCTGATTGGACCGTATTTACCACTCGGAGTCACCTAGTGCAG | 3410 fluorescence intensity (a.u.) |
| AATAAATTGTCTAAGTTATTGCATTAGAACGAGCGCACCCCGGAGTCACCTAGTGCAG | 17500 fluorescence intensity (a.u.) |
| GCCCATTAATTTCTCGTCGTCTCCCTTTTCTCAAACAGTACGGAGTCACCTAGTGCAG | 14100 fluorescence intensity (a.u.) |
| GACCTAACATTGATTGAATATATCTATAATAATATTGTTACGGAGTCACCTAGTGCAG | 40800 fluorescence intensity (a.u.) |
| GTTGAATGTTTTGTATGATTTGAACCTGAAAACTGCATGACGGAGTCACCTAGTGCAG | 7380 fluorescence intensity (a.u.) |
| TGTTCCCAATCATTCTCACCATATCGAGCTATGAAAAGAGCGGAGTCACCTAGTGCAG | 3920 fluorescence intensity (a.u.) |
| GTGATTGGCGCGATCCGTGCGCTTGCCGTCTTGCCGGCGTCGGAGTCACCTAGTGCAG | 30100 fluorescence intensity (a.u.) |
| ATAACTAAGATTATATTAATTTGCCGTGTATAATACTTCCCGGAGTCACCTAGTGCAG | 12700 fluorescence intensity (a.u.) |
| ATGAAAATTAAAGCACATCAATGGTGGGGATTAAAAGTGGCGGAGTCACCTAGTGCAG | 3600 fluorescence intensity (a.u.) |
| GCTGATGGGTATGACACGAGAGCAGCCAAAATCCGGCCGGCGGAGTCACCTAGTGCAG | 8780 fluorescence intensity (a.u.) |
| TATCTGATTGACAACTTCATCTTTTCGCTTATACTTATGCCGGAGTCACCTAGTGCAG | 42600 fluorescence intensity (a.u.) |
| AACCATTGATTTTCCTGAGTTTCTCAATCTGATGGCTCGCCGGAGTCACCTAGTGCAG | 7920 fluorescence intensity (a.u.) |
| CAGTCAACTGACAGTTTGATCAGTCATCTCTATCCCTTGACGGAGTCACCTAGTGCAG | 5460 fluorescence intensity (a.u.) |
| TAAATTACTAGTTAACTTAGTTATATCTTCATTTGATCCTCGGAGTCACCTAGTGCAG | 5640 fluorescence intensity (a.u.) |
| ATCAGAACTAATTGTGTAGTGTTATTAGTTGCTGGCATATCGGAGTCACCTAGTGCAG | 5830 fluorescence intensity (a.u.) |
| CAACTGATTGGTCTCACACCCGACCTAACGGCTAACGCAACGGAGTCACCTAGTGCAG | 46600 fluorescence intensity (a.u.) |
| ACCAAAATTAGCATCAGTGAGCTACTTGCCTGGCCAACCGCGGAGTCACCTAGTGCAG | 4790 fluorescence intensity (a.u.) |
| AAGTGCAATTCACTCAATTAGTTATAAAGACCAATCGTTCCGGAGTCACCTAGTGCAG | 4250 fluorescence intensity (a.u.) |
| CATGAGATGATTGAACTGGGACATGTTAGTCAAGGTTTTCCGGAGTCACCTAGTGCAG | 25400 fluorescence intensity (a.u.) |
| AGTCTAATAACAAAACAAATTACAAATTCTGACAGGAAGCCGGAGTCACCTAGTGCAG | 12600 fluorescence intensity (a.u.) |
| TGTCCTGATTTGGTGTTTTATTTTACTTAAGATTCAGAAGCGGAGTCACCTAGTGCAG | 14900 fluorescence intensity (a.u.) |
| ACTTGGATTGGATAGTTACTACAAGGCCGAGATAGATGAGCGGAGTCACCTAGTGCAG | 12100 fluorescence intensity (a.u.) |
| TTTGATTCGTGACAGGTGGTAGGAGAGCTAATTGTTCCTGCGGAGTCACCTAGTGCAG | 10300 fluorescence intensity (a.u.) |
| TTATGAATGACTGTTCACTGTACATTAATATGCACTTCATCGGAGTCACCTAGTGCAG | 4200 fluorescence intensity (a.u.) |
| TTTTAATTTATGAATGCAGACATGGTGATCTAACACCATACGGAGTCACCTAGTGCAG | 29900 fluorescence intensity (a.u.) |
| TGTCATGATTTGATAATGTGGTGCTACAGTAAATATTTGCCGGAGTCACCTAGTGCAG | 26800 fluorescence intensity (a.u.) |
| GTGCTTAATTAACCTCCGCGGCAAGAATAAGCCATAATTTCGGAGTCACCTAGTGCAG | 6090 fluorescence intensity (a.u.) |
